# Experimental data reported in patent publication US4826975A, “Fused cycloaliphatic aminoalcohols” (Maggioni-Winthrop S.P.A., priority 1986, dated 1989).
# Tests used:
# [1] = oral acute toxicity in male mice; settings: mouse, in vivo
# Method: The oral acute toxicity in male mice of the invention compound is very low. […]; and higher than 2,000 mg/kg for MG 38005, MG 28401, MG 28414 and MG 28427.
# [2] = system: alpha1 -adrenergic receptors; assay: receptor binding assay, inhibition of ^3 H-Prazosin binding to rat brain membrane
# Method: (§1) The receptor binding assay for the inhibition of ^3 H-Prazosin, ^3 H-clonidine and ^3 H-spiperone binding to rat brain membrane was carried out according to Greenberg et al., Life Sci. 19, 69, 1976, and U'Prichard et al., Molec. Pharmacol. 13, 454, 1977.
# (§2) Data for the tested compounds are reported in Table 3 where the 50% inhibiting concentrations (IC50) of Tibalosine and Urapidil are also given.
# toxic adrenaline doses = assay: animal or person; assay type: in vivo, mice; settings: Mus musculus, po; 2 hrs before 14.5 mg/kg 1-adrenaline i.p., mortality after 24 hrs; read-out: DP50 (50% protective dose)
# DOCA rats = assay type: in vivo, rat; settings: 15 mg/kg po
# Method: Changes in blood pressure (mm Hg) before (T=O) and after treatment (2, 4 and 6 hrs) were measured according to the method of tail artery plethysmography reported in "Spontaneously hypertensive rats (SHR), guidelines for breeding, care and use", SHR Conference, 1976, page 11.
# The heart rate was also […] (BP Recorder No. 8006 supplied by Basile, Comerio, Italy). The arterial pressure before the treatment was 210±10 mmHg in SHR and 200±10 in DOCA rats.
# [3] = system: phenylephrine (PHE) induced hypertension; assay type: in vivo, rat; settings: 1 mg/kg i.v.
# [4] = molecular target: T1, serotoninergic 2 (5-HT2) receptors (Rattus norvegicus, UniProt P14842); assay: receptor binding assay, inhibition of ^3 H-spiperone binding to rat brain membrane; settings: for inhibition at 5.4 µM: 5.4 × 10^-6 M; for inhibition at 5.4 µM / inhibition at 0.54 µM: read-out: % Inhibition of the specific binding, ^3 H--Spiperone (5-HI2); for inhibition at 0.54 µM: 5.4 × 10^-7 M
# T1 construct: from tissue; host or cells: rat brain membrane
# T1 sequence (P14842 whole entry): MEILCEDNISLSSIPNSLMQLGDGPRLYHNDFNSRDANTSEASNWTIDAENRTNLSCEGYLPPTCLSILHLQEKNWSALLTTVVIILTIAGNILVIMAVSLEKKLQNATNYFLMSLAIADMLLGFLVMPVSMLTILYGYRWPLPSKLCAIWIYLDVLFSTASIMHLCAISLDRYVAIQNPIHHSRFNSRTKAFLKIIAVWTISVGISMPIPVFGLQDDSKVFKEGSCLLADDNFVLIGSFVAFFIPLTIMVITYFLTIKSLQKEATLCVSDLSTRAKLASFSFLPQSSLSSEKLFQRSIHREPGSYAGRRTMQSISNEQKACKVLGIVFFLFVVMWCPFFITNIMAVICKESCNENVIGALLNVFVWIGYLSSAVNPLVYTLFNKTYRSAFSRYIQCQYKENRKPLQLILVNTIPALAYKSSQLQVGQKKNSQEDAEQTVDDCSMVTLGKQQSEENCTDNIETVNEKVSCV
# Method: as §1
# SHR = assay: anti-hypertensive activity in spontaneously hypertensive (SH) rats, tail artery plethysmography; settings: for pressure decrease: SH rats; for Max. changes in systolic pressure: SHR, 15 mg/kg po
# [5] = system: alpha2 -adrenergic receptors; assay: receptor binding assay, inhibition of ^3 H-clonidine binding to rat brain membrane
# Method: as §1, §2
# gasping time in mice = assay: anti-hypoxic activity, gasping time after decapitation; assay type: in vivo; settings: 100 mg/kg p.o., pretreatment 45 min.
# Method: The anti-hypoxic activity was determined according to Yasuda et al., Arch. Int. Pharmacodyn. 233, 136, 1978.
# Groups of 10 male mice (21-23 g) were treated orally with vehicle (controls) and the invention compounds. After 45 or 90 minutes the animals were decapitated and the gasping time was determined. Table 6 gives the results obtained after administration of some of the invention compounds which display an activity higher than Suloctidil.
# Normolipemic rats [6] = assay: hypolipemic activity in normolipemic rats (serum lipids, liver weight); assay type: in vivo, rat
# Method: Total cholesterol (CHOL), triglycerides (TG), HDL cholesterol CHOL-HDL) were assayed in serum and the liver was weighed.
# Normolipemic rats [7] = settings: rat, in vivo; cited from earlier work
# [8] = molecular target: alpha1 -adrenergic receptors; settings: literature value; read-out: IC50, ^3 H--Prazosin (α1); cited from earlier work
# [9] = molecular target: alpha2 -adrenergic receptors; settings: literature value; read-out: IC50, ^3 H--Clonidine (α2); cited from earlier work
compound,measurement,setting,value
"COc1cc2c(cc1OC)[C@H](O)[C@H](N1CCC(n3c(=O)[nH]c4ccccc43)CC1)C2 (relative stereo) [MG 28401, cis 2-[4-(2-Oxo-1-benzimidazolinyl)-1-piperidinil]-5,6-dimethoxy-1-indanol]",LD50,[1],> 2000 mg/kg
same,"% Inhibition of the specific binding, ^3 H--Prazosin (α1)",[2]; 5.4 × 10^-6 M,92%
same,"% Inhibition of the specific binding, ^3 H--Prazosin (α1)",[2]; 5.4 × 10^-7 M,54.5%
same,ED50,toxic adrenaline doses,3.5 mg/kg
same,Max. changes in systolic pressure,DOCA rats,-40.2 mmHg
same,"PHE dosis causing a 50 mm Hg increase of the arterial pressure, in comparison with the controls",[3],about 3 times
same,affinity toward serotoninergic 2 (5-HT2) receptors (in words),[4],moderate affinity
same,inhibition at 5.4 µM,[4],81%
same,inhibition at 0.54 µM,[4],41%
same,pressure decrease,SHR; 5 mg/kg p.o.,37.6 mm Hg
same,Max. changes in systolic pressure,SHR,-67 mmHg
same,"% Inhibition of the specific binding, ^3 H--Clonidine (α2)",[5]; 5.4 × 10^-6 M,0%
same,"% Inhibition of the specific binding, ^3 H--Clonidine (α2)",[5]; 5.4 × 10^-7 M,0%
"COc1cc2c(cc1OC)[C@H](O)[C@@H](N1CCC(n3c(=O)[nH]c4ccccc43)CC1)C2 (relative stereo) [MG 28427, trans 2-[4-(2-Oxo-1-benzimidazolinyl)-1-piperidinil]-5,6-dimethoxy-1-indanol]",LD50,[1],> 2000 mg/kg
same,Max. changes in systolic pressure,DOCA rats,-41.2 mmHg
same,"PHE dosis causing a 50 mm Hg increase of the arterial pressure, in comparison with the controls",[3],about 3 times
same,pressure decrease,SHR; 1 mg/kg p.o.,17.4 mm Hg
same,pressure decrease,SHR; 5 mg/kg p.o.,26.2 mm Hg
same,Max. changes in systolic pressure,SHR,-47 mmHg
"COc1cc2c(c(OC)c1OC)C[C@@H](N1CCC(n3c(=O)[nH]c4ccccc43)CC1)[C@H]2O (relative stereo) [MG 38007, cis 2-[4-(2-Oxo-2-benzimidazolinyl)-1-piperidinyl]-4,5,6-trimethoxy-1-indanol]","% Inhibition of the specific binding, ^3 H--Prazosin (α1)",[2]; 5.4 × 10^-6 M,96%
same,"% Inhibition of the specific binding, ^3 H--Prazosin (α1)",[2]; 5.4 × 10^-7 M,75%
same,ED50,toxic adrenaline doses,10 mg/kg
same,Max. changes in systolic pressure,DOCA rats,-37.4 mmHg
same,affinity toward serotoninergic 2 (5-HT2) receptors (in words),[4],moderate affinity
same,inhibition at 5.4 µM,[4],93%
same,inhibition at 0.54 µM,[4],49%
same,pressure decrease,SHR; 5 mg/kg p.o.,20 mm Hg
same,Max. changes in systolic pressure,SHR,-61.4 mmHg
same,"% Inhibition of the specific binding, ^3 H--Clonidine (α2)",[5]; 5.4 × 10^-6 M,32.5%
same,"% Inhibition of the specific binding, ^3 H--Clonidine (α2)",[5]; 5.4 × 10^-7 M,3.5%
"COc1cc2c(c(OC)c1OC)C[C@H](N1CCC(n3c(=O)[nH]c4ccccc43)CC1)[C@H]2O (relative stereo) [MG 38019, trans 2-[4-(2-Oxo-2-benzimidazolinyl)-1-piperidinyl]-4,5,6-trimethoxy-1-indanol]",LD50,[1],> 1000 mg/kg
same,"% Inhibition of the specific binding, ^3 H--Prazosin (α1)",[2]; 5.4 × 10^-6 M,82%
same,"% Inhibition of the specific binding, ^3 H--Prazosin (α1)",[2]; 5.4 × 10^-7 M,35.5%
same,Max. changes in systolic pressure,DOCA rats,-23 mmHg
same,inhibition at 5.4 µM,[4],33%
same,inhibition at 0.54 µM,[4],10%
same,Max. changes in systolic pressure,SHR,-56 mmHg
same,"% Inhibition of the specific binding, ^3 H--Clonidine (α2)",[5]; 5.4 × 10^-6 M,6.7%
same,"% Inhibition of the specific binding, ^3 H--Clonidine (α2)",[5]; 5.4 × 10^-7 M,0%
"COc1cc2c(cc1OC)[C@H](O)[C@@H](N1CCC(n3c(=O)[nH]c4ccccc43)CC1)CC2 (relative stereo) [MG 38041, trans 2-[4-(2-Oxo-1-benzimidazolinyl)-1-piperidinyl]-6,7-dimethoxy-1-tetralol]",LD50,[1],> 500 mg/kg
same,"Gasping time, % diff. from control",gasping time in mice,+56.2%
same,ED50,toxic adrenaline doses,0.31 mg/kg
same,"CHOL, % difference from control",Normolipemic rats [6]; 0.370 mM/kg po × 4 days,~ 0%
same,"CHOL-HDL, % difference from control",Normolipemic rats [6]; 0.370 mM/kg po × 4 days,+53.1%
same,"Liver weight, % difference from control",Normolipemic rats [6]; 0.370 mM/kg po × 4 days,+2.0%
same,"TG, % difference from control",Normolipemic rats [6]; 0.370 mM/kg po × 4 days,-44.2%
same,effect on TG and CHOL-HDL (in words),"Normolipemic rats [6]; oral, 4 days",decrease TG and increase CHOL-HDL
same,"PHE dosis causing a 50 mm Hg increase of the arterial pressure, in comparison with the controls",[3],about 9 times
"COc1cc2c(cc1OC)[C@H](O)[C@H](N1CCC(n3c(=O)[nH]c4ccccc43)CC1)CC2 (relative stereo) [MG 38060, cis-2-[4-(2-Oxo-1-benzimidazolinyl)-1-piperidinyl]-6,7-dimethoxy-1-tetralol]",ED50,toxic adrenaline doses,1.28 mg/kg
same,Max. changes in systolic pressure,DOCA rats,-25.5 mmHg
same,"PHE dosis causing a 50 mm Hg increase of the arterial pressure, in comparison with the controls",[3],about 9 times
same,Max. changes in systolic pressure,SHR,-47 mmHg
"CCOC(=O)C(C)(C)Oc1ccc(Cl)cc1 [Clofibrate, reference compound]","effect on liver, as known (in words)",Normolipemic rats [7],signicative liver increase
same,"CHOL, % difference from control",Normolipemic rats [6]; 0.820 mM/kg po × 4 days,-15.0%
same,"CHOL-HDL, % difference from control",Normolipemic rats [6]; 0.820 mM/kg po × 4 days,0%
same,"Liver weight, % difference from control",Normolipemic rats [6]; 0.820 mM/kg po × 4 days,+19.5%
same,"TG, % difference from control",Normolipemic rats [6]; 0.820 mM/kg po × 4 days,-40.0%
"CC(NCCCCc1ccccc1)C(O)c1ccc2c(c1)CCS2 (stereo not drawn) [Tibalosine, reference compound]",IC50,[8],0.4 µM
same,IC50,[9],1000 µM
same,pressure decrease,SHR; 5 mg/kg p.o.,13 mm Hg
same,anti-hypertensive activity (in words),"SHR; p.o., Tibalosine at 5 mg/kg, Table 1 compounds at 15 mg/kg",poorly active
COc1ccccc1N1CCN(CCCNc2cc(=O)n(C)c(=O)n2C)CC1 [Urapidil],IC50,[8],0.8 µM
same,IC50,[9],14 µM
